# In PMC11995724, “Antibiotic target discovery by integrated phenotypic and activity-based profiling of electrophilic fragments” (Cell chemical biology, 2025):
# The whole screen tested about 3,200 compounds, of which about 110 (3.4%) showed an effect of 50% or more. This is one part of the list.
# Test system: T1, V. cholerae SAD30
# T1 construct: SAD30
# Set-up: species or system S. aureus MSSA476 (TSB) or V. cholerae SAD30 (LB); 384-well bacterial growth screen at 25 uM, OD600 relative to DMSO control
# Conditions: relative growth, OD600, LB; 25 µM; inhibitor
row,Compound,% of control remaining [%]
1,"O=C(CCl)Nc1cc(S(=O)(=O)N2CCOCC2)ccc1O [6-J12, 2-chloro-N-[2-hydroxy-5-(morpholine-4-sulfonyl)phenyl]acetamide]",86.302
2,"O=C(CCl)NCc1cnn(-c2ccccc2)n1 [6-J03, 2-chloro-N-[(2-phenyl-2H-1,2,3-triazol-4-yl)methyl]acetamide]",103.289
3,"CC1CCCCC1NC(=O)CCl (stereo not shown) [6-C10, 2-chloro-N-(2-methylcyclohexyl)acetamide]",90.7005
4,"N#CC(=Cc1ccccc1)C(=O)NC1CC1 [9-M15, 2-cyano-N-cyclopropyl-3-phenylprop-2-enamide]",90.6186
5,"CC1CN(C(=O)C(C)Cl)CC(C)O1 (stereo not shown) [5-F04, 2-chloro-1-(2,6-dimethylmorpholin-4-yl)propan-1-one]",102.217
6,"CC(Cl)C(=O)N1CC(Cc2cccs2)C1 (stereo not shown) [7-I04, 2-chloro-1-{3-[(thiophen-2-yl)methyl]azetidin-1-yl}propan-1-one]",84.7183
7,"Cc1ccc(C=C(C#N)C(=O)Nc2ccccc2C(F)(F)F)cc1 [8-E16, 2-cyano-3-(4-methylphenyl)-N-[2-(trifluoromethyl)phenyl]prop-2-enamide]",69.2726
8,"CC(Cl)C(=O)N1CC(C(=O)N2CCN(C)CC2)Oc2ccccc21 (stereo not shown) [7-A20, 2-chloro-1-[2-(4-methylpiperazine-1-carbonyl)-3,4-dihydro-2H-1,4-benzoxazin-4-yl]propan-1-one]",79.9604
9,"C=CC(=O)NC1CCC(F)(F)CC1F (stereo not shown) [1-E11, N-(2,4,4-trifluorocyclohexyl)prop-2-enamide]",90.4335
10,"CC(Cl)C(=O)N1CCC(c2nc3cc(F)ccc3s2)CC1 (stereo not shown) [6-J18, 2-chloro-1-[4-(5-fluoro-1,3-benzothiazol-2-yl)piperidin-1-yl]propan-1-one]",72.0447
11,"C=CC(=O)Nc1ccc(C(N)=O)nc1OC [1-E18, 6-methoxy-5-(prop-2-enamido)pyridine-2-carboxamide]",89.6861
12,"CC(NC(=O)CCl)C(=O)Nc1ccc(Cl)cc1 (stereo not shown) [5-G11, 2-(2-chloroacetamido)-N-(4-chlorophenyl)propanamide]",99.0228
13,"Cc1nn(C)c(C)c1CN(C(=O)CCl)C1CCCCC1C (stereo not shown) [5-A14, 2-chloro-N-(2-methylcyclohexyl)-N-[(1,3,5-trimethyl-1H-pyrazol-4-yl)methyl]acetamide]",105.243
14,"N#CC(=Cc1c(Cl)cccc1Cl)C(=O)NCCc1ccccc1 [8-B14, 2-cyano-3-(2,6-dichlorophenyl)-N-(2-phenylethyl)prop-2-enamide]",61.1149
15,"Cc1nn(C)c(C)c1C=C(C#N)C(=O)Nc1ccc2c(c1)OCCO2 [9-D03, 2-cyano-N-(2,3-dihydro-1,4-benzodioxin-6-yl)-3-(1,3,5-trimethyl-1H-pyrazol-4-yl)prop-2-enamide]",104.079
16,"CC(Cl)C(=O)NCC1(n2ccnn2)CC1 (stereo not shown) [6-B20, 2-chloro-N-{[1-(1H-1,2,3-triazol-1-yl)cyclopropyl]methyl}propanamide]",88.7288
17,"CC(Cl)C(=O)N1CCOCC1 (stereo not shown) [5-H09, 2-chloro-1-(morpholin-4-yl)propan-1-one]",95.6604
18,"CC(=O)Nc1ccc(NC(=O)C(C#N)=Cc2cc(F)ccc2F)cc1 [8-C12, 2-cyano-3-(2,5-difluorophenyl)-N-(4-acetamidophenyl)prop-2-enamide]",75.2549
19,"CC(=O)N1CCC(N(Cc2cncs2)C(=O)C(C)Cl)CC1 (stereo not shown) [5-H21, N-(1-acetylpiperidin-4-yl)-2-chloro-N-[(1,3-thiazol-5-yl)methyl]propanamide]",104.235
20,"C=CC(=O)N(CC)Cc1cn(C)nn1 [2-O09, N-ethyl-N-[(1-methyl-1H-1,2,3-triazol-4-yl)methyl]prop-2-enamide]",91.5854
21,"COc1cc(Cl)ccc1CNC(=O)C(C#N)=Cc1ccco1 [9-E18, N-[(4-chloro-2-methoxyphenyl)methyl]-2-cyano-3-(furan-2-yl)prop-2-enamide]",69.0007
22,"COc1ccccc1C1CSCCCN1C(=O)CCl (stereo not shown) [5-O16, 2-chloro-1-[3-(2-methoxyphenyl)-1,4-thiazepan-4-yl]ethan-1-one]",97.0054
23,"O=C(CCl)Nc1ccc(Cl)c(S(=O)(=O)N2CCCCC2)c1 [4-P14, 2-chloro-N-[4-chloro-3-(piperidine-1-sulfonyl)phenyl]acetamide]",110.589

row,Compound,% of control remaining [%]
1,"C=CC(=O)N(C)CC(=O)N1CCCc2ccccc21 [3-D15, N-methyl-N-[2-oxo-2-(1,2,3,4-tetrahydroquinolin-1-yl)ethyl]prop-2-enamide]",99.853
2,"COc1ccc(C=C(C#N)C(=O)Nc2ccc(C(=O)O)cc2)cc1C [9-G14, 4-[2-cyano-3-(4-methoxy-3-methylphenyl)prop-2-enamido]benzoic acid]",90.8906
3,"C=CC(=O)NC(C)c1ccc(-n2nc(C)cc2C)c(F)c1 (stereo not shown) [3-P17, N-{1-[4-(3,5-dimethyl-1H-pyrazol-1-yl)-3-fluorophenyl]ethyl}prop-2-enamide]",107.616
4,"CC(Cl)C(=O)NC(c1cccs1)c1cccs1 (stereo not shown) [6-L21, N-[bis(thiophen-2-yl)methyl]-2-chloropropanamide]",87.6671
5,"C=CC(=O)NCc1coc(-c2ccc(C)cc2)n1 [2-F13, N-{[2-(4-methylphenyl)-1,3-oxazol-4-yl]methyl}prop-2-enamide]",87.4168
6,"O=C(CCl)NC1CC(=O)N(c2cccc(C(F)(F)F)c2)C1 (stereo not shown) [5-E09, 2-chloro-N-{5-oxo-1-[3-(trifluoromethyl)phenyl]pyrrolidin-3-yl}acetamide]",100.2
7,"CC(Cl)C(=O)NCC1CCCCC1 (stereo not shown) [4-I10, 2-chloro-N-(cyclohexylmethyl)propanamide]",96.6142
8,"C=CC(=O)NC(C)Cn1cc(C(=O)O)cn1 (stereo not shown) [3-D10, 1-[2-(prop-2-enamido)propyl]-1H-pyrazole-4-carboxylic acid]",102.5
9,"C[C@H]1CN(C(=O)CCl)CCN1C(=O)c1cscn1 [5-L05, 2-chloro-1-[(3S)-3-methyl-4-(1,3-thiazole-4-carbonyl)piperazin-1-yl]ethan-1-one]",86.0775
10,"CC(Cl)C(=O)NC1CC(C)N(c2ccccc2)C1=O (stereo not shown) [5-B19, 2-chloro-N-(5-methyl-2-oxo-1-phenylpyrrolidin-3-yl)propanamide]",94.3154
11,"O=C(CCl)NCc1ccccc1S(=O)(=O)N1CCOCC1 [4-F22, 2-chloro-N-{[2-(morpholine-4-sulfonyl)phenyl]methyl}acetamide]",115.247
12,"C=CC(=O)N1CCC(C(=O)N2CCN(c3ccnc(C)n3)CC2)CC1 [2-L06, 1-{4-[4-(2-methylpyrimidin-4-yl)piperazine-1-carbonyl]piperidin-1-yl}prop-2-en-1-one]",88.9607
13,"CC(C)C(=O)Nc1ccc(C(=O)C(C)Cl)cc1 (stereo not shown) [10-E08, N-[4-(2-chloropropanoyl)phenyl]-2-methylpropanamide]",100.058
14,"C=CC(=O)N(CC)CC(=O)N1CCC(c2nnc(C)o2)CC1 [3-A08, N-ethyl-N-{2-[4-(5-methyl-1,3,4-oxadiazol-2-yl)piperidin-1-yl]-2-oxoethyl}prop-2-enamide]",109.557
15,"O=C(CCl)NC(Cn1cncn1)c1ccccc1 (stereo not shown) [7-N03, 2-chloro-N-[1-phenyl-2-(1H-1,2,4-triazol-1-yl)ethyl]acetamide]",95.1594
16,"O=C(CCl)N1CCN(Cc2ccon2)CC1 [5-O04, 2-chloro-1-{4-[(1,2-oxazol-3-yl)methyl]piperazin-1-yl}ethan-1-one]",105.411
17,"C=CC(=O)N1CCC(c2nc(N(C)C)no2)CC1 [2-K09, 1-{4-[3-(dimethylamino)-1,2,4-oxadiazol-5-yl]piperidin-1-yl}prop-2-en-1-one]",90.5047
18,"C=CC(=O)N1CC[C@H](Oc2ccccc2)C1 [3-I18, 1-[(3S)-3-phenoxypyrrolidin-1-yl]prop-2-en-1-one]",86.6201
19,"CC(Cl)C(=O)Nc1ccc(OCc2ccccc2)cc1 (stereo not shown) [6-O13, N-[4-(benzyloxy)phenyl]-2-chloropropanamide]",80.8418
20,"CC(C)Oc1ccccc1C=C(C#N)C(=O)Nc1ccccc1 [8-M17, 2-cyano-N-phenyl-3-[2-(propan-2-yloxy)phenyl]prop-2-enamide]",71.312
21,"COc1ccc(C(=O)CCl)c(OC)c1 [10-G18, 2-chloro-1-(2,4-dimethoxyphenyl)ethan-1-one]",111.748
22,"Cc1nccn1Cc1ccc(NC(=O)C(C#N)=Cc2ccco2)cc1 [9-H12, 2-cyano-3-(furan-2-yl)-N-{4-[(2-methyl-1H-imidazol-1-yl)methyl]phenyl}prop-2-enamide]",89.8029
23,"C=CC(=O)NCc1ccnn1CC(F)(F)F [1-O18, N-{[1-(2,2,2-trifluoroethyl)-1H-pyrazol-5-yl]methyl}prop-2-enamide]",89.8356
